Counter-ions that a name gives are not always drawn. The list shows a part of the results. Single values of this set are uncertain. Values with irradiation are relative to irradiated vehicle.
These molecules were tested on A549-Dual (assay: NF-kB reporter (SEAP) activity, viability-corrected, relative to vehicle (fold change vs vehicle); higher = more activation of STING-IRF / NF-kB immune response reporter). Conditions: 0.1 µM; irradiation: none.
For `CCC(=O)OCC(=O)C1(OC(=O)CC)C(C)CC2C3CCC4=CC(=O)C=CC4(C)C3(Cl)C(O)CC21C` (stereo unspecified) [Beclomethasone dipropionate], the NF-kB reporter was 0.894.
`CC(=O)Nc1ccc(OC(=O)c2ccccc2OC(C)=O)cc1` [Benorylate] was tested, and the NF-kB reporter was 0.901.
Work on `Nc1ccccc1NC(=O)c1ccc(CNC(=O)OCc2cccnc2)cc1` [Entinostat (MS-275)] yielded an NF-kB reporter of 1.35.
For `COc1cc(N2CCC(N3CCN(C)CC3)CC2)ccc1Nc1ncc(Cl)c(Nc2ccccc2P(C)(C)=O)n1`, the NF-kB reporter was 0.934.
In the case of `Cc1c(-c2ccc(-c3ccccc3F)cc2)nc2ccc(F)cc2c1C(=O)O` [Brequinar], the NF-kB reporter is reported as 1.
For `CCC1/C=C(\C)CC(C)CC(OC)C2OC(O)(C(=O)C(=O)N3CCCCC3C(=O)OC(/C(C)=C/C3CCC(Cl)C(OC)C3)C(C)C(O)CC1=O)C(C)CC2OC` (stereo unspecified) [Pimecrolimus], the NF-kB reporter was 1.07.
Molecule `COC(=O)/C=C/C(=O)OC` [Dimethyl Fumarate] has an NF-kB reporter of 0.615.
`Cc1cc(Nc2ncc(Cl)c(Nc3ccccc3S(=O)(=O)C(C)C)n2)c(OC(C)C)cc1C1CCNCC1` [Ceritinib (LDK378)] was tested, and the NF-kB reporter was 1.06.
In the case of `Nc1nc(Cl)nc2c1ncn2C1CC(O)C(CO)O1` (stereo unspecified) [Cladribine], the NF-kB reporter is reported as 0.93.
`CC12CCC(=O)C=C1CCC1C2C(O)CC2(C)C1CCC2(O)C(=O)CO` (stereo unspecified) [Hydrocortisone] showed an NF-kB reporter of 1.31.
`Cc1coc2c1C(=O)C(=O)c1c-2ccc2c(C)cccc12` [Tanshinone I] was tested, and the NF-kB reporter was 1.32.

Source: the supplement of paper PMC9174493
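Note: viability correction based on the alamar blue assay, with concentrations leaving 10% survival or less dropped.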
